Laboratory results taken from PubChem BioAssay AID1030 (National Center for Advancing Translational Sciences (NCATS), 2008).
Screen size: about 220,000 compounds; about 16,000 (7.3%) were called active. Inconclusive results, whose numbers are uncertain, are shown with a selection of clear calls. Calls follow the shape of the dose curve; as a rule, active = well fitted inhibition curve with a large enough effect (not every such curve was filed as active); inconclusive = small, poorly fitted or top-dose-only effect, or another doubt; inactive = no such curve, though single readings can be large or run the other way. Potencies of inconclusive entries are left out as doubtful fits.

These compounds were tested against Aldehyde dehydrogenase 1A1 (Homo sapiens) (UniProt P00352) (assay: qHTS Assay for Inhibitors of Aldehyde Dehydrogenase 1 (ALDH1A1)). Conditions: Purified ALDH1A1, NADH fluorescence, propionaldehyde substrate; series mostly up to 75.3 µM.
Potency is read from the fitted curve at half-maximal effect; tags tell the direction and shape of the fitted curve.

Chain of UniProt P00352 (P00352 whole entry, looked up): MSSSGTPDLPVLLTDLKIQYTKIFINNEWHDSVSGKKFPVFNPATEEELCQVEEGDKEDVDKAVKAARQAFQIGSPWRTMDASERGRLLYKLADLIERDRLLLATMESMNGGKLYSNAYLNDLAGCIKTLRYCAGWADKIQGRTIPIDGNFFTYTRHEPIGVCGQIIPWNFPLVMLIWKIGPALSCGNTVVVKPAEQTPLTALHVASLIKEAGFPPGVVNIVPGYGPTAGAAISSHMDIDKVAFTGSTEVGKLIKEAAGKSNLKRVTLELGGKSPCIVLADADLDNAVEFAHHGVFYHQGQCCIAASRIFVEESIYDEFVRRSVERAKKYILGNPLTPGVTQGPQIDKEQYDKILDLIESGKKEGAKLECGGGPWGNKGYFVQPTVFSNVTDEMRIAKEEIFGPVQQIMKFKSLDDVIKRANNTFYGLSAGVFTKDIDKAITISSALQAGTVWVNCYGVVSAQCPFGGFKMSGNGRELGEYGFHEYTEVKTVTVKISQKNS

SMILES	Potency
O=C1N/C(=N\N=C\c2ccccn2)SC1Cc1cccc(SC(F)F)c1 (stereo unspecified)	inactive
CC(C)c1ccc(OCC(=O)N2CCCCCC2)c(Br)c1	inactive
O=C(ONC1=NCCCCC1)c1c(F)cccc1F	inactive
CCOc1ccc(C(=O)Nc2cc(-c3nc4ccccc4[nH]3)ccc2Cl)cc1[N+](=O)[O-]	inactive
CCCCCCCCSc1nnc2[nH]c(=O)cc(N)n12	inactive
CCN(CC)S(=O)(=O)c1ccc(Cl)c(NC(=O)COC(=O)/C=C/c2ccc(O)c(OC)c2)c1	inconclusive [inhibitor, partial curve]
COc1ccc(-c2csc(Nc3ccccc3)n2)cc1	inconclusive [inhibitor, single point]
COc1ccccc1N=Nc1[nH]c2ccc(C)cc2c1O	inconclusive [inhibitor, single point]
Cc1sc2ncnc(N3CCC(C)CC3)c2c1C	inactive
COc1ccccc1/C=C/C=N/n1c(C2CCCCC2)n[nH]c1=S	inconclusive [inhibitor, partial curve]
CCOC(=O)CSc1nc(C)c2cc(OC)ccc2n1	inconclusive [inhibitor, partial curve]
O=C1NC2(Nc3ccccc31)C(=O)Nc1ccccc12 (stereo unspecified)	inconclusive [inhibitor, single point]
COCCNC(=O)c1c(N)sc2c1CCCC2	inconclusive [inhibitor, partial curve]
CC(=O)c1cccc(NC(=O)c2c(C)nn(-c3ccccc3)c2Cl)c1	inactive
O=C(CN1CCCC1)OCCCc1ccccc1	inconclusive [inhibitor, single point]
CCC(=O)Nc1ncc2c(n1)CC(c1ccco1)CC2=O (stereo unspecified)	inconclusive [inhibitor, single point]
Cc1ccc(C(=O)CNc2ccc(F)cc2)cc1	active: 11.2 µM
Cc1ccc(-n2cc(CNCC3CC(=O)N(C4CC4)C3)c(-c3cccc(C)c3)n2)cc1 (stereo unspecified)	inconclusive [inhibitor, partial curve]
COc1ccc2c(CC(=O)Nc3nccs3)coc2c1	inactive
O=c1cc(CSc2ccc(S(=O)(=O)N3CCCCC3)cn2)nc2sccn12	inconclusive [inhibitor, single point]
Cc1c(Cl)cccc1NC(=O)c1ccc(OCC(=O)NCc2ccccc2)cc1	inactive
COC(=O)c1ccccc1NC(=S)N(Cc1ccc2c(c1)OCO2)Cc1cc2cccc(C)c2[nH]c1=O	inactive
C=CCn1c(C(C)C)nc2ccccc21	inactive
Cc1cc(C)c(C)c(S(=O)(=O)N2C(=S)NC(=O)C2C(C)C)c1C (stereo unspecified)	inconclusive [inhibitor, single point]
Cc1csc(NC(=O)CCc2c(C)nc3cc(-c4cccc(F)c4)nn3c2C)n1	inconclusive [inhibitor, single point]
CCOc1cc(/C=C2\C(=O)ON=C2C)ccc1OCc1ccccc1	active: 3.55 µM

SMILES	Potency
O=C(C1CCN(S(=O)(=O)c2ccc(Cl)cc2)CC1)N1CCOCC1	inactive
CCOC(=O)C1CCN(c2nnc(N3CCCC3=O)s2)CC1	inconclusive [inhibitor, partial curve]
CCN(CC)c1nc(-c2ccccn2)nc(-c2ccccc2)c1C#N	inactive
C=CCOc1ccc(Br)cc1/C=N/O	inconclusive [inhibitor, single point]
C=CCOC(=O)C1=C[C@H](C2CC2)[C@@H](CCCO)[C@H](OCC)O1	active: 28.2 µM
COc1ccc(C2C(C(=O)O)CCC(=O)N2c2ccc(OC)cc2)cc1 (stereo unspecified)	inactive
O=C1Nc2ccccc2/C1=N\c1sc2c(c1C(=O)Nc1ccccc1)CCCC2	active: 25.1 µM
Cc1onc(-c2c(F)cccc2Cl)c1C(=O)NC(=S)Nc1c(C)n(C)n(-c2ccccc2)c1=O	inactive
O=C(N/N=C/c1cccs1)c1ccc(NC(=O)c2ccccc2Cl)cc1	inconclusive [inhibitor, single point]
COc1ccc(C[C@H]2COC(=O)[C@@H]2Cc2ccc(OC3OC(CO)C(O)C(O)C3O)c(OC)c2)cc1OC (stereo partly specified)	inactive
O=C(CN1C(=O)C2C3C=CC(C3)C2C1=O)Nc1ccc2nccnc2c1 (stereo unspecified)	inconclusive [inhibitor, partial curve]
CCn1ccnc1CN(C)Cc1cn(-c2cccc(C)c2)nc1-c1cccc(F)c1	active: 20 µM
CC(=O)C1=C(O)C(=O)N(CCO)C1c1ccccc1 (stereo unspecified)	inactive
Cc1cccc(OCC(=O)N2CCN(C(=O)CCC3CCCC3)CC2)c1	inconclusive [inhibitor, partial curve]
CC(C)c1ccc(NS(=O)(=O)c2ccc3[nH]cc(C(=O)N4CCC(C(N)=O)CC4)c(=O)c3c2)cc1	inactive
Cc1cccc2cc(C#N)c(SCC(=O)Nc3ccccc3N3CCOCC3)nc12	inconclusive [inhibitor, single point]
CC(=O)c1ccc(NC(=O)COC(=O)CCN2C(=O)c3cccc([N+](=O)[O-])c3C2=O)cc1	inconclusive [inhibitor, single point]
c1ccc(-c2cn3c4c(sc3n2)CCCC4)cc1	inconclusive [inhibitor, single point]
CCOC(=O)C1CCC(CNCc2ccccc2C)CC1 (stereo unspecified)	inactive
CS(=O)(=O)Nc1ccccc1C(=O)Nc1cccc(Cl)c1	inconclusive [inhibitor, single point]
COc1ccccc1N1CCN(Cc2ccc(O)c3ncccc23)CC1	inactive
O=C(Oc1ccccc1)N1CCC2(CC1)CN(c1ccncc1)C2	inactive
O=C(NC(=S)Nc1ccc(NC(=O)c2ccco2)cc1)c1ccccc1	inconclusive [inhibitor, single point]
COc1ccc(S(=O)(=O)Nc2cc3c(cc2C(C)=O)OCO3)cc1	inactive
CN(C)S(=O)(=O)c1cc(NC(=O)COC(=O)Cc2ccc(Cl)cc2Cl)ccc1Cl	inactive
